pIC50: −log10 of the molar value. The IC50 comes from the fitted curve, where viability falls to half of the control; where the fit passes the top or lowest dose, that dose stands as a limit. The AUC spans the tested range (256-fold, ending at the top dose) of the same fit; it is 1 without any effect and falls as sensitivity rises. For some of these results: Where the top dose is marked as inferred, it comes from the curve model; the source does not state it. For some of these results: Drugs with an entry number were screened twice under separate entries, and the two screens often disagree.
What was measured:
Test in all cases: Viability of human cancer cell lines after 72 h of drug (GDSC screen)
CEP-701 = compound: C[C@]12O[C@H](C[C@]1(O)CO)n1c3ccccc3c3c4c(c5c6ccccc6n2c5c31)CNC4=O [CEP-701]; settings: top dose 2 µM; top dose inferred
Procedure: (§1)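 Human cancer cell lines in 384-well plates, medium with 10% serum, drug for 72 h over a 256-fold dose range (nine 2-fold or five 4-fold steps up to the top dose). Adherent lines were fixed and stained with the nucleic acid dye Syto60, suspension lines read with resazurin; signal relative to control wells, capped at 0 and 100%. One two-parameter sigmoid per drug and line, fitted in a mixed model over all curves with the slope shared within a line.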

SB 216763 = compound: Cn1cc(C2=C(c3ccc(Cl)cc3Cl)C(=O)NC2=O)c2ccccc21 [SB 216763]; settings: top dose 10 µM; top dose inferred
Procedure: as §1

AR-42 = compound: CC(C)[C@H](C(=O)Nc1ccc(C(=O)NO)cc1)c1ccccc1 [AR-42]; settings: top dose 5.12 µM; top dose inferred
Procedure: as §1

Pazopanib = compound: Cc1ccc(Nc2nccc(N(C)c3ccc4c(C)n(C)nc4c3)n2)cc1S(N)(=O)=O [Pazopanib]; settings: top dose 8 µM
Procedure: as §1

GDC0941 = compound: CS(=O)(=O)N1CCN(Cc2cc3nc(-c4cccc5[nH]ncc45)nc(N4CCOCC4)c3s2)CC1 [GDC0941]; settings: top dose 4 µM; screen: GDSC drug entry 1527; top dose inferred
Procedure: as §1

| Cell Line | AUC (CEP-701) | pIC50 (CEP-701) | AUC (SB 216763) | pIC50 (SB 216763) | AUC (AR-42) | pIC50 (AR-42) | AUC (Pazopanib) | pIC50 (Pazopanib) | AUC (GDC0941) | pIC50 (GDC0941) |
| --- | --- | --- | --- | --- | --- | --- | --- | --- | --- | --- |
| OVKATE (ovary, adherent) | 0.939 | < 5.70 | 0.979 | < 5.00 | 0.638 | 6.00 | 0.954 | < 5.10 |  |  |
| SK-OV-3 (ovary, adherent) | 0.635 | 6.49 | 0.978 | < 5.00 | 0.529 | 6.41 | 0.815 | 5.23 |  |  |
| RCC-JF (kidney, adherent) | 0.431 | 7.10 | 0.976 | < 5.00 | 0.452 | 6.63 |  |  | 0.676 | 6.08 |
| DU-145 (prostate, adherent) | 0.838 | 5.80 | 0.833 | 5.12 |  |  | 0.899 | < 5.10 | 0.546 | 6.47 |
| ACHN (kidney, adherent) | 0.446 | 7.06 | 0.983 | < 5.00 | 0.675 | 5.97 | 0.874 | < 5.10 |  |  |
| HOS (osteosarcoma, adherent) | 0.604 | 6.64 | 0.959 | < 5.00 | 0.971 | < 5.29 |  |  | 0.881 | 5.52 |
| CAL-51 (breast, adherent) | 0.624 | 6.59 | 0.955 | < 5.00 | 0.943 | < 5.29 | 0.896 | 5.12 |  |  |
| 201T (lung adenocarcinoma, adherent) | 0.705 | 6.26 | 0.977 | < 5.00 | 0.777 | 5.59 | 0.868 | < 5.10 |  |  |
| HCT-15 (large intestine, adherent) | 0.421 | 7.13 | 0.987 | < 5.00 | 0.725 | 5.84 | 0.956 | < 5.10 |  |  |
| KP-1N (pancreas, adherent) | 0.956 | < 5.70 | 0.986 | < 5.00 |  |  | 0.904 | < 5.10 | 0.733 | 5.92 |
| NCI-H2172 (non-small cell lung carcinoma, adherent) | 0.946 | < 5.70 | 0.982 | < 5.00 | 0.721 | 5.76 |  |  | 0.905 | < 5.40 |
| YH-13 (glioma, adherent) | 0.545 | 6.78 | 0.921 | < 5.00 | 0.749 | 5.76 |  |  | 0.636 | 6.21 |
| OV-7 (ovary, adherent) | 0.902 | < 5.70 | 0.922 | < 5.00 | 0.57 | 6.26 |  |  | 0.569 | 6.37 |
| U-2-OS (osteosarcoma, adherent) | 0.454 | 7.03 | 0.956 | < 5.00 | 0.428 | 6.70 | 0.892 | < 5.10 |  |  |
| CTB-1 (B-cell lymphoma, suspension) | 0.476 | 6.98 | 0.977 | < 5.00 |  |  | 0.926 | < 5.10 | 0.829 | 5.41 |
| SW620 (large intestine, adherent) | 0.643 | 6.53 | 0.985 | < 5.00 |  |  | 0.99 | < 5.10 | 0.946 | < 5.40 |

| Cell Line | AUC (CEP-701) | pIC50 (CEP-701) | AUC (SB 216763) | pIC50 (SB 216763) | AUC (AR-42) | pIC50 (AR-42) | AUC (Pazopanib) | pIC50 (Pazopanib) | AUC (GDC0941) | pIC50 (GDC0941) |
| --- | --- | --- | --- | --- | --- | --- | --- | --- | --- | --- |
| RVH-421 (melanoma, adherent) | 0.597 | 6.60 | 0.947 | < 5.00 | 0.764 | 5.59 |  |  | 0.786 | 5.61 |
| STS-0421 (soft tissue, adherent) | 0.605 | 6.59 | 0.983 | < 5.00 |  |  | 0.542 | 6.18 | 0.671 | 6.09 |
| RCC-ER (kidney, adherent) | 0.69 | 6.34 | 0.879 | < 5.00 | 0.834 | 5.41 |  |  | 0.702 | 6.00 |
| D-423MG (glioma, adherent) | 0.693 | 6.31 | 0.934 | < 5.00 | 0.518 | 6.44 |  |  | 0.713 | 5.94 |
| RCC-MF (kidney, adherent) | 0.617 | 6.54 | 0.927 | < 5.00 | 0.454 | 6.64 |  |  | 0.741 | 5.82 |
| KYAE-1 (oesophagus, suspension) | 0.966 | < 5.70 | 0.984 | < 5.00 | 0.512 | 6.46 |  |  | 0.49 | 6.63 |
| FLO-1 (oesophagus, adherent) | 0.495 | 6.92 | 0.945 | < 5.00 | 0.52 | 6.43 |  |  | 0.62 | 6.21 |
| Hs746T (stomach, adherent) | 0.847 | < 5.70 | 0.981 | < 5.00 | 0.365 | 6.92 |  |  | 0.776 | 5.66 |
| OC-314 (ovary, adherent) | 0.75 | 6.24 | 0.971 | < 5.00 | 0.532 | 6.41 |  |  | 0.722 | 6.02 |
| YKG-1 (glioma, adherent) | 0.599 | 6.63 | 0.954 | < 5.00 | 0.648 | 6.08 |  |  | 0.848 |  |
| JHU-029 (head and neck, adherent) | 0.733 | 6.17 | 0.979 | < 5.00 |  |  | 0.9 | < 5.10 | 0.668 | 6.09 |
| CADO-ES1 (Ewing sarcoma, suspension) | 0.875 | < 5.70 | 0.968 | < 5.00 | 0.247 | 7.23 |  |  | 0.978 | < 5.40 |
| RCC-FG2 (kidney, adherent) | 0.59 | 6.63 | 0.971 | < 5.00 | 0.628 | 6.10 |  |  | 0.748 | 5.80 |
| NCI-H630 (large intestine, adherent) | 0.832 | 5.85 | 0.968 | < 5.00 | 0.643 | 6.09 |  |  | 0.851 | 5.47 |
| OV-17R (ovary, adherent) | 0.811 | 5.79 | 0.98 | < 5.00 | 0.463 | 6.61 |  |  | 0.801 | 5.53 |
